The text below walks through data of PubChem BioAssay AID488969 (Vanderbilt High Throughput Screening Facility, 2010).

Molecules are shown by their SMILES. Whole data set: some 110,000 compounds, median “z-score” near -0.1, cut for the highest 2% near 2. The list shows a part of the results.

In the assay the target is Metabotropic glutamate receptor 8 (Rattus norvegicus) (UniProt P70579). Nature of the assay: rat mGluR8 modulators via GIRK flux, primary screen, cell-based, thallium flux, HTS (AID 488969). Particulars: HEK293 rat mGluR8, GIRK (G protein-gated inwardly rectifying potassium channel) thallium flux, FluoZin2; at 10 µM; stronger effect = higher value; submaximal glutamate (EC20) added with thallium.
Sequence of UniProt P70579 (P70579 whole entry, looked up): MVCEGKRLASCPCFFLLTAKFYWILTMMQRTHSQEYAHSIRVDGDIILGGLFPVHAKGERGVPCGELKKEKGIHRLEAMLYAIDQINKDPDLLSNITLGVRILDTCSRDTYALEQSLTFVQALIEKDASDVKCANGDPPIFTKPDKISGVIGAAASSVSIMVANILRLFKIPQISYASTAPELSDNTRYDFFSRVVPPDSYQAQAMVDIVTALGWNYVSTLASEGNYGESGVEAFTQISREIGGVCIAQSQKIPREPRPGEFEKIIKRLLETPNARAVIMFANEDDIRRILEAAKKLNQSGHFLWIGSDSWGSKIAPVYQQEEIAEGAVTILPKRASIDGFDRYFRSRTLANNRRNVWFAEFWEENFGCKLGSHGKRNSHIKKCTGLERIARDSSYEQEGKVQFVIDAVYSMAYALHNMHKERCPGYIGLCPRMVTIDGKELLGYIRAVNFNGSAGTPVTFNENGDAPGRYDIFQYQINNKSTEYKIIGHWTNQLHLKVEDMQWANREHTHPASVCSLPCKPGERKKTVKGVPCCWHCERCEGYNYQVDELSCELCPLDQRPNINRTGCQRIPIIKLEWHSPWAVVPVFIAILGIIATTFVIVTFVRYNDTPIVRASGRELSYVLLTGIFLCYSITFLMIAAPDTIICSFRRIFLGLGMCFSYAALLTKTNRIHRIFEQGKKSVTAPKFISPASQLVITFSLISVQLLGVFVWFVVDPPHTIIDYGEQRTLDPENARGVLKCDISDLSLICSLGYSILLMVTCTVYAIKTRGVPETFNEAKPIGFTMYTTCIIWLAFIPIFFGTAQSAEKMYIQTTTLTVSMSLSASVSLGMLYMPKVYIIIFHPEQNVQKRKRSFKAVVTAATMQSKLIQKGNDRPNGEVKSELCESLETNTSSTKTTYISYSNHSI
`O=C(COc1ccc(Cl)cc1Cl)N1CCCN(C(=O)COc2ccc(Cl)cc2Cl)CC1` gave a z-score of 0.0165.
The value for `COc1ccc(C(CC(=O)c2ccccc2)S(=O)(=O)c2ccc(C)cc2)cc1` (stereo unspecified) was -0.141; that for `O=C(CC1Nc2ccccc2NC1=O)Nc1cc(Cl)cc(Cl)c1` (stereo unspecified) was 0.051.
The same measure for `O=C(c1cccs1)N(Cc1cccc(Cl)c1)C1CCS(=O)(=O)C1` (stereo unspecified): 0.343; for `CCCCNC(=O)COC(=O)CCC(=O)c1ccc(F)cc1`: 0.237; for `O=C(N/N=C\c1ccc2c(c1)OCO2)c1ccco1`: -0.127.
Molecule `CCC(=O)Nc1cccc(-n2nnnc2SCC(=O)NCc2ccco2)c1` displayed a z-score of 0.799.
With `Cc1ccc(Nc2cc(-n3cccn3)ncn2)c(C)c1`, the z-score was -0.35.
Regarding `CCn1c(=O)c2cc(C(=O)N3CCOCC3)sc2c2ccccc21`, the z-score was -0.0705.
The same measure for `CC(=O)c1c(C)[nH]c(C(=O)Nc2nc(-c3ccc(-c4ccccc4)cc3)cs2)c1C`: -0.0439; for `Cc1cc(C)cc(N(CC(=O)NCCSc2ccccn2)S(=O)(=O)c2ccccc2)c1`: -0.188.
The molecule `CCOc1ccccc1N(C(=O)Nc1ccc(Cl)cc1)C1=NCCS1` came in with a z-score of -0.424.
In turn, `CCNC(=S)Nc1cc(OCC)c(NC(=O)c2ccco2)cc1OCC` came in with a z-score of -0.249.
`CCOc1ccc(NC(=O)C(C)Sc2nnnn2C)cc1` (stereo unspecified) came in with a z-score of -0.23.
`O=S(=O)(c1ccc(N2CCC(c3ccc(Cl)cc3)=N2)cc1)N(CCO)CCO`: the z-score was -0.748.
The molecule `c1ccc(-c2nccc(-c3ccc(-n4cnc5ccccc54)cc3)n2)cc1` showed a z-score of -0.341.
The value for `CSCC[C@H](NC(=O)OC(C)(C)C)c1nnc(SCC(=O)N(C)C)o1` was -0.106; that for `COc1ccc(/C=N/N=C2\SCC(=O)N2c2c(C)n(C)n(-c3ccccc3)c2=O)cc1OC` was -0.267.
With `CC1CCN(c2ncnc3c2cnn3-c2ccccc2)CC1`, the z-score amounted to 0.0724.
The same measure for `COC(=O)CCC(=O)Nc1ccccc1C(=O)Nc1ccccc1`: -0.215.
The value for `Cc1cc(NCC2CCCO2)n2c(nc3ccccc32)c1C#N` (stereo unspecified) was -1.2.
The value for `O=C(N/N=C/C=C/c1ccc(Br)cc1)C(O)c1ccccc1` (stereo unspecified) was 0.008; that for `CCn1c(COc2ccc(Cl)cc2)nnc1SC1CCc2ccccc2C1=O` (stereo unspecified) was -0.443; that for `NS(=O)(=O)c1ccc(CCNC(=O)CSc2nc3ccsc3c(=O)n2C2CC2)cc1` was -0.632.
`CC(=O)/C(=N\Nc1ccc(C)cc1)N1CCOCC1` registered a z-score of -0.102.
Molecule `Cc1ccc(C)c(NS(=O)(=O)c2cc(C(=O)Nc3ccccc3-c3ccccc3)ccc2Cl)c1` returned a z-score of -0.546.
`COCCOC(=O)/C=C1/NC(=O)CS1` registered a z-score of -0.352.
The value for `CCCCNC(=O)C1CCN(c2nc(OC)nc(OC)n2)CC1` was -0.214; that for `COC(=O)CSCC(=O)Nc1cc2c(cc1C(C)=O)OCO2` was 0.0216.
With `CC1(C)Cc2ccccc2-c2nnc(-c3ccccn3)n21`, the z-score was 0.413.
`COc1cccc(C=Nc2ccccc2C(=O)Nc2ccccc2)c1O` had a z-score of -0.223.
